# Laboratory results from the supplement of paper PMC8728848.
# This is one part of the list.
# What was measured:
# Assay in all cases: glycan array binding signal (z-score within array); higher = stronger binding
# Settings in all cases: glycan notation: IUPAC condensed, linker removed
# [1] = target: Gal(b1-3)GlcNAc(b1-3)Gal(b1-4)[Fuc(a1-3)]GlcNAc(b1-6)[Gal(b1-3)GlcNAc(b1-3)]Gal(b1-4)Glc
# Procedure, shortened: (§1)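 From the Consortium for Functional Glycomics database, 3228 arrays were curated, keeping only those whose protein sequence was available. Binding is given as a within-array Z-score averaged across arrays sharing a protein sequence and across linkers. Negative Z-scores can be read as non-binding.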
# [2] = target: Gal(b1-3)GlcNAc(b1-3)GalNAc
# Procedure, shortened: as §1
# [3] = target: Gal(b1-3)GlcNAc(b1-6)Gal(b1-4)GlcNAc
# Procedure, shortened: as §1
# [4] = target: Gal(b1-3)[Fuc(a1-4)]GlcNAc
# Procedure, shortened: as §1
# [5] = target: Gal(b1-3)[Fuc(a1-4)]GlcNAc(b1-2)Man(a1-3)[Gal(b1-3)[Fuc(a1-4)]GlcNAc(b1-2)Man(a1-6)]Man(b1-4)GlcNAc(b1-4)GlcNAc
# Procedure, shortened: as §1
# [6] = target: Gal(b1-3)[Fuc(a1-4)]GlcNAc(b1-2)Man(a1-3)[Gal(b1-3)[Fuc(a1-4)]GlcNAc(b1-2)Man(a1-6)]Man(b1-4)GlcNAc(b1-4)[Fuc(a1-6)]GlcNAc
# Procedure, shortened: as §1
# [7] = target: Gal(b1-3)[Fuc(a1-4)]GlcNAc(b1-3)Gal(b1-3)[Fuc(a1-4)]GlcNAc
# Procedure, shortened: as §1
# [8] = target: Gal(b1-3)[Fuc(a1-4)]GlcNAc(b1-3)Gal(b1-4)GlcNAc
# Procedure, shortened: as §1
# [9] = target: Gal(b1-3)[Fuc(a1-4)]GlcNAc(b1-3)Gal(b1-4)[Fuc(a1-3)]GlcNAc
# Procedure, shortened: as §1
# [10] = target: Gal(b1-3)[GlcNAc(b1-6)]GalNAc
# Procedure, shortened: as §1
# [11] = target: Gal(b1-3)[GlcNAc(b1-6)]GlcNAc
# Procedure, shortened: as §1
# [12] = target: Gal(b1-3)[Neu5Ac(a2-6)]GalNAc
# Procedure, shortened: as §1
# [13] = target: Gal(b1-3)[Neu5Ac(a2-6)]GlcNAc
# Procedure, shortened: as §1
# [14] = target: Gal(b1-3)[Neu5Ac(a2-6)]GlcNAc(a1-4)Gal(b1-4)Glc
# Procedure, shortened: as §1
# [15] = target: Gal(b1-3)[Neu5Ac(a2-6)]GlcNAc(b1-6)Gal(b1-4)Glc
# Procedure, shortened: as §1
# [16] = target: Gal(b1-3)[Neu5Ac(b2-6)]GalNAc
# Procedure, shortened: as §1
# [17] = target: Gal(b1-3)[Neu5Ac(b2-6)]GlcNAc
# Procedure, shortened: as §1
# [18] = target: Gal(b1-4)Gal
# Procedure, shortened: as §1
# [19] = target: Gal(b1-4)GalNAc(a1-3)[Fuc(a1-2)]Gal(b1-4)GlcNAc
# Procedure, shortened: as §1
# [20] = target: Gal(b1-4)GalNAc(b1-3)[Fuc(a1-2)]Gal(b1-4)GlcNAc
# Procedure, shortened: as §1
# [21] = target: Gal(b1-4)Glc
# Procedure, shortened: as §1
# [22] = target: Gal(b1-4)Glc6S
# Procedure, shortened: as §1
# [23] = target: Gal(b1-4)GlcNAc
# Procedure, shortened: as §1
# [24] = target: Gal(b1-4)GlcNAc(a1-6)Gal(b1-4)GlcNAc
# Procedure, shortened: as §1
# [25] = target: Gal(b1-4)GlcNAc(b1-2)Man(a1-3)Man(b1-4)GlcNAc(b1-4)GlcNAc
# Procedure, shortened: as §1
# [26] = target: Gal(b1-4)GlcNAc(b1-2)Man(a1-3)[Gal(b1-4)GlcNAc(b1-2)Man(a1-6)]Man(b1-4)GlcNAc(b1-4)GlcNAc
# Procedure, shortened: as §1
# [27] = target: Gal(b1-4)GlcNAc(b1-2)Man(a1-3)[Gal(b1-4)GlcNAc(b1-2)Man(a1-6)]Man(b1-4)GlcNAc(b1-4)[Fuc(a1-6)]GlcNAc
# Procedure, shortened: as §1
# [28] = target: Gal(b1-4)GlcNAc(b1-2)Man(a1-3)[Gal(b1-4)GlcNAc(b1-2)][GlcNAc(b1-4)]Man(b1-4)GlcNAc(b1-4)GlcNAc
# Procedure, shortened: as §1
# [29] = target: Gal(b1-4)GlcNAc(b1-2)Man(a1-3)[GlcNAc(b1-2)Man(a1-6)]Man(b1-4)GlcNAc(b1-4)GlcNAc
# Procedure, shortened: as §1
# [30] = target: Gal(b1-4)GlcNAc(b1-2)Man(a1-3)[Man(a1-6)]Man(b1-4)GlcNAc(b1-4)GlcNAc
# Procedure, shortened: as §1
# [31] = target: Gal(b1-4)GlcNAc(b1-2)Man(a1-6)Man(b1-4)GlcNAc(b1-4)GlcNAc
# Procedure, shortened: as §1
# [32] = target: Gal(b1-4)GlcNAc(b1-2)Man(a1-6)[GlcNAc(b1-2)Man(a1-3)]Man(b1-4)GlcNAc(b1-4)GlcNAc
# Procedure, shortened: as §1
# [33] = target: Gal(b1-4)GlcNAc(b1-2)Man(a1-6)[Man(a1-3)]Man(b1-4)GlcNAc(b1-4)GlcNAc
# Procedure, shortened: as §1
# [34] = target: Gal(b1-4)GlcNAc(b1-2)[Gal(b1-4)GlcNAc(b1-4)]Man(a1-3)[Gal(b1-4)GlcNAc(b1-2)Man(a1-6)]Man(b1-4)GlcNAc(b1-4)GlcNAc
# Procedure, shortened: as §1
# [35] = target: Gal(b1-4)GlcNAc(b1-2)[Gal(b1-4)GlcNAc(b1-4)]Man(a1-3)[Gal(b1-4)GlcNAc(b1-2)[Gal(b1-4)GlcNAc(b1-6)]Man(a1-6)]Man(b1-4)GlcNAc(b1-4)GlcNAc
# Procedure, shortened: as §1
# [36] = target: Gal(b1-4)GlcNAc(b1-2)[Gal(b1-4)GlcNAc(b1-4)]Man(a1-3)[GlcNAc(b1-4)][Gal(b1-4)GlcNAc(b1-2)Man(a1-6)]Man(b1-4)GlcNAc(b1-4)GlcNAc
# Procedure, shortened: as §1
# [37] = target: Gal(b1-4)GlcNAc(b1-2)[Gal(b1-4)GlcNAc(b1-6)]Man(a1-6)[GlcNAc(b1-4)][Gal(b1-4)GlcNAc(b1-2)Man(a1-3)]Man(b1-4)GlcNAc(b1-4)GlcNAc
# Procedure, shortened: as §1
binder,measurement,setting,value
"AAL (Aleuria aurantia), P18891 (protein) PTEFLYTSKIAAISWAATGGRQQRVYFQDLNGKIREAQRGGDNPWTGGSSQNVIGEAKLFSPLAAVTWKSAQGIQIRVYCVNKDNILSEFVYDGSKWITGQLGSVGVKVGSNSKLAALQWGGSESAPPNIRVYYQKSNGSGSSIHEYVWSGKWTAGASFGSTVPGTGIGATAIGPGRLRIYYQATDNKIREHCWDSNSWYVGGFSASASAGVSIAAISWGSTPNIRVYWQKGREELYEAAYGGSWNTPGQIKDASRPTPSLPDTFIAANSSGNIDISVFFQASGVSLQQWQWISGKGWSIGAVVPTGTPAGW",glycan array binding signal (z-score),[1],0.584
same,glycan array binding signal (z-score),[2],-0.414
same,glycan array binding signal (z-score),[3],-0.434
same,glycan array binding signal (z-score),[4],1.66
same,glycan array binding signal (z-score),[5],-0.355
same,glycan array binding signal (z-score),[6],-0.039
same,glycan array binding signal (z-score),[7],1.51
same,glycan array binding signal (z-score),[8],1.54
same,glycan array binding signal (z-score),[9],1.45
same,glycan array binding signal (z-score),[10],-0.48
same,glycan array binding signal (z-score),[11],-0.62
same,glycan array binding signal (z-score),[12],-0.46
same,glycan array binding signal (z-score),[13],-0.651
same,glycan array binding signal (z-score),[14],-0.625
same,glycan array binding signal (z-score),[15],-0.487
same,glycan array binding signal (z-score),[16],-0.487
same,glycan array binding signal (z-score),[17],-0.627
same,glycan array binding signal (z-score),[18],-0.447
same,glycan array binding signal (z-score),[19],-0.081
same,glycan array binding signal (z-score),[20],-0.399
same,glycan array binding signal (z-score),[21],-0.503
same,glycan array binding signal (z-score),[22],-0.491
same,glycan array binding signal (z-score),[23],-0.488
same,glycan array binding signal (z-score),[24],-0.433
same,glycan array binding signal (z-score),[25],-0.404
same,glycan array binding signal (z-score),[26],-0.521
same,glycan array binding signal (z-score),[27],0.792
same,glycan array binding signal (z-score),[28],-0.438
same,glycan array binding signal (z-score),[29],-0.439
same,glycan array binding signal (z-score),[30],-0.406
same,glycan array binding signal (z-score),[31],-0.439
same,glycan array binding signal (z-score),[32],-0.434
same,glycan array binding signal (z-score),[33],-0.428
same,glycan array binding signal (z-score),[34],-0.353
same,glycan array binding signal (z-score),[35],-0.394
same,glycan array binding signal (z-score),[36],-0.348
same,glycan array binding signal (z-score),[37],-0.429
